For 89 compounds, survival results are on record in PubChem BioAssay AID463173 (ICCB-Longwood Screening Facility, Harvard Medical School, 2010).

About 4,300 (8.3%) of roughly 52,000 compounds were called active. No stated cut-off is given here; in the data, active means survival mostly below about 52% (no sharp cut-off); inactive means mostly above about 56%. The list shows a part of the results.

The assay deals with DeltatarO mutant. The assay is described as follows: S. aureus survival, RN4220 and DeltatarO strains – OD600, teichoic acid synthesis inhibitors, primary screen (AID 463173). To be noted: S. aureus RN4220 wild type/DeltatarO growth, OD600, 18 h, active compounds read low, screened at 18.75 µg/mL (by protocol).
Consider `O=C(NCCN1CCCC1)c1ccco1`, for which the survival is inactive: 85%.
The figure for `COc1cc(OC)c(NC(=O)Cn2cnc3c(nc4n3CCCCC4)c2=O)cc1Cl` is inactive: 72%; for `Cc1ccccc1C(=O)n1nc(-c2cccnc2)nc1NCc1ccc(F)cc1` it is inactive: 48%.
As for `CCN(CCCNC(=O)Cn1ncc2c3ccccc3n(C)c2c1=O)c1cccc(C)c1`, the figure is inactive: 81%.
As for `Cc1cc(OCC(=O)Nc2nc3c(s2)CCCC3)cc(C)c1Cl`, the figure is inactive: 85%; as for `CCOC(=O)c1ccccc1NC(=O)COc1cc(=O)n(CC)c2ccccc12`, inactive: 53%; as for `Cc1nc(SCC(N)=O)c2c3c(sc2n1)CCCC3`, inactive: 80%.
As for `CC1CC(=O)N(CC(=O)Nc2ccc(OC(F)(F)F)cc2)c2ccccc2S1` (centres undefined), the survival is inactive: 65%.
In the case of `Cc1ccc(-c2nn(CO)c(=S)o2)cc1`, the survival was active: 48%.
As for `Cc1cccc(N(C)C(=O)c2cc3c(=O)oc4ccc(C)cc4c3s2)c1`, the figure is inactive: 103%; as for `Cc1ccc(CCNC(=O)c2cc3cc(S(=O)(=O)N4CCCCC4)ccc3n2C)cc1`, inactive: 89%.
Turning to `CCOc1ccc(-n2nc3ccc(NC(=O)c4ccc(C)cc4C)cc3n2)cc1`, the survival is inactive: 82%.
The figure for `CCC(=O)Nc1ccccc1C(=O)OCc1cc(=O)n2cc(C)sc2n1` is inactive: 75%; for `O=C(NC1C2CC3CC(C2)CC1C3)c1cccnc1` (centres undefined) it is inactive: 83%.
As to `COc1ccc(OC)c(NC(=O)Cn2c(CCC(=O)O)ccc2-c2ccccc2)c1`, the survival was inactive: 103%.
For `COc1cc(C(C(=O)NC2CCCCC2)N(Cc2ccco2)C(=O)c2cnccn2)cc(OC)c1OC` (centres undefined), the survival is inactive: 83%.
The figure for `CC(C)CCN1C(=O)c2ccccc2CC1(C)C(=O)NC1CCCCC1` (centres undefined) is inactive: 88%; for `CCOCCc1nn2c(=O)cc(COC(=O)c3ccccc3NC(=O)CC(C)C)nc2s1` it is inactive: 89%; for `CC(C)CN(CC(C)C)S(=O)(=O)c1ccc(C(=O)Nc2sc3c(c2C(N)=O)CCN(C(C)C)C3)cc1` it is inactive: 95%.
The figure for `CCC(c1nnnn1C1CCCC1)N(Cc1cccs1)Cc1cc2cccc(C)c2[nH]c1=O` (centres undefined) is inactive: 98%; for `CCOc1ccc(-c2noc(CSc3nnc(Cc4ccccc4)n3-c3ccc(F)cc3)n2)cc1` it is inactive: 72%; for `Cc1cccc(N2CCN(c3ncnc4c3cnn4-c3ccc(Cl)cc3)CC2C)c1` (centres undefined) it is inactive: 71%.
The figure for `O=C(O)c1cc(-c2ccccc2)on1` is inactive: 100%.
As for `COC(=O)c1scc(-c2ccc(C)cc2)c1S(=O)(=O)N1CCN(c2ccccc2F)CC1`, the survival is inactive: 118%.
The figure for `O=C(Cn1c(-c2cccs2)cc2cc(F)ccc21)N1CCCCC1` is inactive: 90%; for `COc1cccc(C(=O)Nc2c3c(nn2-c2ccc(C)cc2C)CS(=O)(=O)C3)c1OC` it is inactive: 116%; for `CCN1CCN(CCCNC(=O)c2cnn(-c3ccc(OC)cc3)c2C2CCN(C(=O)OC(C)(C)C)CC2)CC1` it is inactive: 95%.
The figure for `CCN1CCOC(=O)C1CC(=O)Nc1cc(Cl)ccc1C` (centres undefined) is inactive: 52%.
The figure for `COC(=O)c1ccc(C(=O)OC)c(NC(=O)c2cnn3c(C(F)F)cc(-c4ccc(C)cc4)nc23)c1` is inactive: 60%; for `CCOC(=O)c1cccc(NC(=O)CC2C(=O)N(c3ccc(F)cc3)C(=O)N2Cc2cccc(OC)c2)c1` (centres undefined) it is inactive: 93%; for `Cc1ccc(NC(=O)CN2C(=O)c3ccccc3Sc3ccc(C(=O)N4CCCC4)cc32)cc1` it is inactive: 76%.
As for `O=C(Nc1cc(Cl)ccc1Cl)c1cc(S(=O)(=O)N2CCCc3ccccc32)ccc1F`, the survival was inactive: 94%.
The figure for `CCN(CC)CCNC(=O)c1[nH]c2ccccc2c1Sc1ccc(Cl)cc1` is inactive: 45%.
As for `CN(C(=O)c1ccc2c(c1)N(Cc1ccccc1F)C(=O)c1ccccc1S2(=O)=O)C1CCCCC1`, the figure is inactive: 105%.
The figure for `COc1ccc(NC(=O)C(NC(=O)/C=C\c2ccc3c(c2)OCO3)c2ccc(OC)cc2)cc1` (centres undefined) is inactive: 61%.
Consider `COc1ccc(NC(=O)C(=O)NCC(c2cccnc2)N2CCc3ccccc3C2)cc1` (centres undefined), for which the survival is inactive: 69%.
As for `CCOC(=O)C1CCCN(Cc2cn3c(-c4ccc(Br)cc4)nnc3s2)C1` (centres undefined), the figure is inactive: 69%; as for `CCOc1ccc(NC(=O)Cc2ccc(-n3c(C)nc4cccnc43)cc2)cc1`, inactive: 100%.
The figure for `COc1ccc(C(=O)NNc2ncnc3c2cnn3-c2ccccc2)cc1` is inactive: 92%; for `CC(=O)N1CCC(N(Cc2ccco2)C(=O)Nc2ccc(Br)cc2F)CC1` it is inactive: 124%; for `CCOc1ccc(NC(=O)[C@H](Cc2ccccc2)N2Cc3ccccc3C2=O)cc1` it is inactive: 73%.
The figure for `CCN(CC)c1cc2c(cc1F)c(=O)c(S(=O)(=O)c1ccc(C)cc1)cn2Cc1ccc(F)cc1` is inactive: 94%; for `CCCSc1nc2c(c(=O)[nH]1)C(c1ccc(F)cc1F)CC(=O)N2` (centres undefined) it is inactive: 43%; for `O=C(Cn1ncc2ccsc2c1=O)N1CCN(c2ccccc2)CC1` it is inactive: 88%.
Take `CCCN1CCN(c2ncnc3sc(C(=O)Nc4cccc(Cl)c4C)c(C)c23)CC1`: the survival is inactive: 95%.
The figure for `O=C(NCCc1ccc(Cl)cc1)c1nc(-c2cccc(F)c2)n2c1CCCCC2` is inactive: 125%; for `COc1ccc(CCN2CC(O)=C(c3nc4ccccc4c(=O)[nH]3)C2=N)cc1OC` it is inactive: 74%.
As for `Cc1cc2n(n1)CCC(=O)N2Cc1ccc(C(=O)Nc2ccc(Br)c(C)c2)cc1`, the figure is inactive: 76%.
As for `COC(=O)c1c(NC(=O)COc2c(C)ccc(C)c2C)sc2c1CCC(C)C2` (centres undefined), the figure is active: 22%.
Regarding `CC1=C(C(=O)Nc2cccnc2)C(c2ccc(Cl)cc2)n2nc(SCc3ccccc3)nc2N1` (centres undefined), the survival is inactive: 64%.
As for `Cc1ccc(-n2nc(C(=O)Nc3cccc(C#N)c3)c3c4ccccc4n(C)c3c2=O)cc1`, the survival is inactive: 129%.
Take `Cc1ccccc1NC(=O)CSc1nc2ccccc2c2nc(CCn3c(C)nc4ccccc43)nn12`: the survival is inactive: 91%.
Take `Cc1ccc(CNC(=O)c2cn(C)c3ccc(S(=O)(=O)N4CCOCC4)cc3c2=O)cc1`: the survival is inactive: 127%.
The figure for `COc1ccccc1N1CCN(C(=O)c2cc3c(=O)oc4ccc(C)cc4c3s2)CC1` is inactive: 106%; for `COc1ccc(OC)c(S(=O)(=O)Nc2cccc(-c3ccc(N4CCCCCC4)nn3)c2)c1` it is inactive: 70%; for `CCOc1ccc(-c2nc(CNC(=O)Nc3ccccc3)c(C)o2)cc1` it is inactive: 80%.
As for `N#CCCCn1c(O)c(N=NC(=O)C2COc3ccccc3O2)c2ccccc21` (centres undefined), the figure is inactive: 62%; as for `COc1ccc(NCc2cc3ccc(OC)cc3n(CC(=O)Nc3cccc(OC)c3)c2=O)cc1`, inactive: 94%; as for `CCOC(=O)c1c(C)c(C(=O)NCc2ccc(Cl)cc2)c(C)n1CC`, inactive: 104%.
The figure for `CCC1CCc2nc3sc(C(=O)Nc4ccc(F)c(F)c4)c(N)c3cc2C1` (centres undefined) is inactive: 76%.
`COc1ccc(NC(=O)CSc2nc3c(c(=O)[nH]2)CCC3)cc1`: the survival is inactive: 55%.
The figure for `Cn1c(-c2ccc(S(=O)(=O)N3CCCC3)cc2)csc1=Nc1ccc(Cl)c(Cl)c1` is inactive: 78%.
The figure for `CC(C)c1ccccc1Oc1c(C(F)(F)F)oc2c(CN3CCN(C)CC3)c(O)ccc2c1=O` is inactive: 49%.
As for `Brc1ccc(CN2CCc3nc(N4CCN(c5ncccn5)CC4)ncc3C2)cc1`, the figure is inactive: 65%.
Turning to `O=C(Cn1c(=O)n(CCc2ccccc2)c(=O)c2c3c(sc21)CCCC3)Nc1ccc(F)c(F)c1`, the survival was inactive: 84%.
As for `CCCc1nnc(NC(=O)Cc2coc3ccc(C)cc23)s1`, the figure is inactive: 72%.
As for `CCOc1ccccc1Nc1sc(C(=O)c2ccc(Cl)cc2)c(N)c1C(=O)NCCc1ccccc1`, the figure is inactive: 94%.
For `Cc1ccccc1NC(=O)c1c(NC(=O)C(F)(F)F)sc2c1CCCCC2`, the survival was active: -3%.
As for `Cn1nnc2cc(C(=O)Nc3cccnc3)ccc21`, the figure is inactive: 81%; as for `CC1Cc2ccccc2N1C(=O)CSc1nccc(=O)[nH]1` (centres undefined), inactive: 81%.
The figure for `COc1cc(NC(=O)c2nn(-c3ccc(F)cc3)c(=O)n(C)c2=O)cc(OC)c1OC` is inactive: 125%.
The figure for `CCn1c(C(=O)N2CCC(C(=O)NCCCOC)CC2)cc2sccc21` is inactive: 82%; for `O=C(COCc1cc(-c2cccs2)on1)NCc1cccc(Cl)c1` it is inactive: 117%; for `Cc1cc(C)c(/C=C/c2onc(C)c2S(=O)(=O)N2CCC(C(=O)Nc3ccc(Cl)cc3C)CC2)c(C)c1` it is inactive: 94%.
`Cc1nc2ccn(Cc3ccccc3)c(=O)c2cc1C(=O)NCc1ccccc1F`: the survival was inactive: 80%.
The figure for `COc1ccc(NC(=O)Nc2cccc(-c3cn4cccnc4n3)c2)cc1` is inactive: 86%.
On to `CC1CCCN(C(=O)CSc2nnc(COc3ccc(Cl)cc3)n2C)C1` (centres undefined), for which the survival is inactive: 99%.
As for `CC1(C)Oc2ccc(C(=O)N3CCCC3)cc2N(CC(=O)N2CCCCC2)C1=O`, the figure is inactive: 81%; as for `CC1CC(=O)N(CC(=O)Nc2ccc(F)cc2F)c2ccccc2S1` (centres undefined), inactive: 95%.
As for `O=C(CCCn1ccc2cc(S(=O)(=O)N3CCCC3)ccc21)NCc1ccc(Cl)cc1`, the figure is inactive: 96%; as for `Cn1c(=O)[nH]c(=O)c2c1nc(NCCO)n2CC(O)COc1ccccc1` (centres undefined), inactive: 165%; as for `CCOc1ccc(/C=C/c2nc(C#N)c(Nc3ccc(OCC)cc3)o2)cc1`, inactive: 84%.
The figure for `Cc1c(-c2ccccc2)c(=O)oc2c(CN3CCCC3)c(O)ccc12` is inactive: 97%; for `CCc1ccc(C2CC(=O)NC(NC(=O)c3ccc(C(C)(C)C)cc3)=N2)cc1` (centres undefined) it is inactive: 53%; for `CCc1cccc(NC(=O)Cn2c(=O)n(CCC(=O)NCC3CCCO3)c(=O)c3cc(OC)c(OC)cc32)c1` (centres undefined) it is inactive: 62%.
For `Cc1ccc(-c2nc3ncccc3o2)cc1NC(=O)c1ccccc1Br`, the survival was inactive: 53%.
The figure for `O=C(NCCC1=CCCCC1)C1CC(O)CN1C(=O)Nc1ccccc1` (centres undefined) is inactive: 87%; for `Cc1ccc(CNC(=O)c2cc3c(s2)-c2ccc(Cl)cc2SC3)cc1` it is inactive: 69%.
The figure for `Cc1ccc(CSC2=Nc3ccccc3C3=NC(CC(=O)NCc4cccs4)C(=O)N23)cc1` (centres undefined) is inactive: 80%.
